# Values joined by “and” are separate entries in the source; they are usually repeats but may differ in a detail not shown here. Equal values may be shown once. The inconclusive results got no clear call from the source; some entries with a clear call stand among them for comparison. Potencies of inconclusive entries are doubtful fits and often do not repeat. Active and inactive are the calls of the source. Unless noted, calls come from the whole dose curve; as a rule, active = well fitted cell-killing curve with a large enough effect in the repeat runs; inconclusive = weak or mixed curves, or effect the other way; inactive = no such curve, though single readings can be large or run the other way.
# Target: Glucocorticoid receptor (Homo sapiens) (UniProt P04150)
# Assay: qHTS assay to identify small molecule antagonists of the glucocorticoid receptor (GR) signaling pathway (AID 720692; active = well fitted inhibition curve with a large enough effect in the signal ratio in the repeat runs, not every such curve was filed as active; inconclusive = weak or mixed curves, or effect the other way; inactive = no such curve, though single readings can be large or run the other way; the % refers to the signal ratio)
# Conditions: GR-bla HeLa, beta-lactamase FRET ratio, dexamethasone-stimulated, 18 h; activity change, negative = inhibition: at 58.5 µM (top of the series) unless noted
# Outline: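 Dexamethasone (5 nM final) stimulated a stably integrated GRE-beta-lactamase reporter in HeLa cells during 18 h co-incubation with compounds; signal was quantified as fluorescence intensity of B/G FRET substrate after 2 h.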
# % is set by controls: 0 for no effect and ±100 for the full control effect; potency is the fitted concentration of half-maximal effect; tags give direction and shape of the fitted curve or compound fluorescence and quenching.
# Sequence of UniProt P04150 (P04150 whole entry, looked up): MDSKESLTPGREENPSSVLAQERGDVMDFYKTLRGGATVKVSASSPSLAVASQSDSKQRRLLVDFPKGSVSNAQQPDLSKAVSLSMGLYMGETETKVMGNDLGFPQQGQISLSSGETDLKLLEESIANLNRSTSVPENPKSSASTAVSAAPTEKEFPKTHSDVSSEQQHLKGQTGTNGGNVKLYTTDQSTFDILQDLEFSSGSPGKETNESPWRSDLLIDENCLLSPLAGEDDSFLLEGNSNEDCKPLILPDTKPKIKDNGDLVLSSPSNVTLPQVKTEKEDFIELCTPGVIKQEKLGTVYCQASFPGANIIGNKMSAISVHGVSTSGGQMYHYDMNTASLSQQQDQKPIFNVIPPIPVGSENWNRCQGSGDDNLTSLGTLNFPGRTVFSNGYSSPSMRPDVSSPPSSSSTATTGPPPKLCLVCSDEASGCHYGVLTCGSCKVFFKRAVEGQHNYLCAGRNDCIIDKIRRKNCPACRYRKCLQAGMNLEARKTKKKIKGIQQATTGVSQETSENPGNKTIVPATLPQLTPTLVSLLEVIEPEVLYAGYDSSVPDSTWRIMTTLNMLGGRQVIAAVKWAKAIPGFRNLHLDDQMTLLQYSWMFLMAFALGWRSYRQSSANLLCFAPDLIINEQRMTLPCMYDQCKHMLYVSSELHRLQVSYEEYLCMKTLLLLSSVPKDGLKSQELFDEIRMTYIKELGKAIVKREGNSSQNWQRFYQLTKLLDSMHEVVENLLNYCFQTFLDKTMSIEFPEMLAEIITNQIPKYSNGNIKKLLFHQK
Compound,Potency,"activity change, negative = inhibition"
C[C@H]1O[C@@H](O[C@H]2[C@@H](O)C[C@H](O[C@H]3[C@@H](O)C[C@H](O[C@H]4CC[C@@]5(C)[C@H](CC[C@@H]6[C@@H]5CC[C@]5(C)[C@@H](C7=CC(=O)OC7)CC[C@]65O)C4)O[C@@H]3C)O[C@@H]2C)C[C@H](O)[C@@H]1O,active: 425 nM and inconclusive: 175 nM,–
O=C(O)COc1nc(Cl)c(Cl)cc1Cl,–,inconclusive: 16.5% [at 78.9 µM]
NC(=S)c1c(Cl)cccc1Cl,inactive,–
COP(=O)(OC)SCn1c(=O)oc2cc(Cl)cnc21,inconclusive: 54.9 µM [cytotoxic],–
O=C1C(Cl)=C(Cl)C(=O)c2ccccc21,"inconclusive: 49.1 µM [cytotoxic, partial curve] and inconclusive: 61.7 µM [cytotoxic, single point]",–
Clc1ccc(-c2ccc(Cl)c(Cl)c2Cl)c(Cl)c1Cl,–,inconclusive: 21.3%
COc1cccc(C(=O)CCN[C@@H](C)[C@H](O)c2ccccc2)c1,"inconclusive: 4.25 µM [inhibitor, full curve]",–
COc1cc(OC)c(OC)cc1C=O,–,inconclusive: 44.3%
Cl[C@H]1OCCO[C@@H]1Cl,"inconclusive: 19.1 µM [activator, partial curve, poor fit]",inconclusive: 5.89%
ClC1=C(Cl)[C@]2(Cl)[C@@H]3[C@@H](Cl)[C@H]4O[C@H]4[C@@H]3C1(Cl)C2(Cl)Cl,inconclusive: 61.6 µM [cytotoxic],–
Clc1ccc(C(c2ccccc2Cl)C(Cl)(Cl)Cl)cc1 (centres undefined),active: 22 µM and active: 20.3 µM,–
CNP(=O)(OC)Oc1ccc(C(C)(C)C)cc1Cl (centres undefined),–,inconclusive: 16%
Fc1ccc(C(OCCN2CCN(CCCc3ccccc3)CC2)c2ccc(F)cc2)cc1,"inconclusive: 23.9 µM [cytotoxic, partial curve]",–
O=C/C=C/c1ccccc1,inactive,–
CCCOCC(=Nc1ccc(Cl)cc1C(F)(F)F)n1ccnc1,inconclusive: 19.5 µM [cytotoxic],–
CN(C)CCc1c[nH]c2ccc(O)cc12,–,inconclusive: -10.1%
CC(C)CCCCCCCOP(=O)(Oc1ccccc1)Oc1ccccc1,inactive,–
CC(C)C(Nc1ccc(C(F)(F)F)cc1Cl)C(=O)OC(C#N)c1cccc(Oc2ccccc2)c1 (centres undefined),–,inconclusive: 7.63% [at 78.9 µM]
N#CC(C#N)=NNc1cccc(Cl)c1,"inconclusive: 1.55 µM [cytotoxic, full curve]",–
O=S1OC[C@@H]2[C@H](CO1)[C@]1(Cl)C(Cl)=C(Cl)[C@@]2(Cl)C1(Cl)Cl (some centres undefined),"inconclusive: 38.9 µM [inhibitor, partial curve, poor fit]",–
CN1CCc2cc(Cl)c(O)cc2[C@H]2c3ccccc3CC[C@@H]21,–,inconclusive: 12.6%
CCN(N=O)C(N)=O,"inconclusive: 12.6 µM [falling, partial curve, poor fit]",inconclusive: -3.01%
CCOP(=O)(OCC)Oc1nc(Cl)c(Cl)cc1Cl,active: 27.4 µM,–
CC(=O)[O][Sn]([c]1ccccc1)([c]1ccccc1)[c]1ccccc1,"inconclusive: 15.5 µM [cytotoxic, full curve]",–
O=S1OCC2C(CO1)C1(Cl)C(Cl)=C(Cl)C2(Cl)C1(Cl)Cl (centres undefined),"inconclusive: 61.7 µM [cytotoxic, single point] and inconclusive: 61.6 µM [cytotoxic, single point]",–

# System: not listed separately
# Assay: qHTS assay to identify small molecule antagonists of the glucocorticoid receptor (GR) signaling pathway - cell viability counter screen (AID 720693); note: nearly all actives have a fitted effect of over 55% in size
# Conditions: GR-bla HeLa viability, CellTiter-Glo luminescence, 18 h, with 5 nM dexamethasone present; viability change, negative = cytotoxic: at 58.5 µM (top of the series) unless noted
row,Compound,Potency
1,C[C@H]1O[C@@H](O[C@H]2[C@@H](O)C[C@H](O[C@H]3[C@@H](O)C[C@H](O[C@H]4CC[C@@]5(C)[C@H](CC[C@@H]6[C@@H]5CC[C@]5(C)[C@@H](C7=CC(=O)OC7)CC[C@]65O)C4)O[C@@H]3C)O[C@@H]2C)C[C@H](O)[C@@H]1O,active: 477 nM and active: 98.3 nM
2,COP(=O)(OC)SCn1c(=O)oc2cc(Cl)cnc21,active: 49 µM
3,O=C1C(Cl)=C(Cl)C(=O)c2ccccc21,active: 21.9 µM and active: 19.5 µM
4,COc1cc(OC)c(OC)cc1C=O,inconclusive: 21.2 µM
5,ClC1=C(Cl)[C@]2(Cl)[C@@H]3[C@@H](Cl)[C@H]4O[C@H]4[C@@H]3C1(Cl)C2(Cl)Cl,"inconclusive: 61.6 µM [cytotoxic, single point]"
6,Clc1ccc(C(c2ccccc2Cl)C(Cl)(Cl)Cl)cc1 (centres undefined),"inconclusive: 49.3 µM [cytotoxic] and inconclusive: 40.5 µM [cytotoxic, single point]"
7,Fc1ccc(C(OCCN2CCN(CCCc3ccccc3)CC2)c2ccc(F)cc2)cc1,active: 21.3 µM
8,CCCOCC(=Nc1ccc(Cl)cc1C(F)(F)F)n1ccnc1,active: 15.5 µM
9,N#CC(C#N)=NNc1cccc(Cl)c1,active: 6.92 µM
10,CN1CCc2cc(Cl)c(O)cc2[C@H]2c3ccccc3CC[C@@H]21,"inconclusive: 0.239 µM [rising, single point]"
11,CCOP(=O)(OCC)Oc1nc(Cl)c(Cl)cc1Cl,inactive
12,O=S1OCC2C(CO1)C1(Cl)C(Cl)=C(Cl)C2(Cl)C1(Cl)Cl (centres undefined),"inconclusive: 61.7 µM [cytotoxic, single point] and inconclusive: 61.6 µM [cytotoxic, single point]"
